In patent EP4674868A1 (Jiangsu Hengrui Pharmaceuticals Co., Ltd., dated 2026):
Read-outs that look alike come from different tables or passages of the source. Blank lines part the entries; values can stand above or below the binder they belong to.

Experiments:
[1] = biological target: T1, human 4-1BB on the surface of HEK293 cells (HEK293-Hu4-1BB) (human, UniProt Q07011 24-255); experiment: FACS, HEK293-Hu4-1BB cells
T1 construct: whole, on cells; also called CD137; cell strain highly expressing human 4-1BB
T1 sequence (Q07011 24-255): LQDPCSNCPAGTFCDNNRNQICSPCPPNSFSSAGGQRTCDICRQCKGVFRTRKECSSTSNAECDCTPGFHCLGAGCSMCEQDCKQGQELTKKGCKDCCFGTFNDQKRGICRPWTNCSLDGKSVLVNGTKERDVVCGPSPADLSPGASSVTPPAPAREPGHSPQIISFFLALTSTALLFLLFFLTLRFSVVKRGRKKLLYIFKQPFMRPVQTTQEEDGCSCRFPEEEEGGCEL

[2] = biological target: T2, human FAP on the surface of CHO-K1 cells (CHO-K1-HuFAP) (human, UniProt Q12884 1-760); experiment: FACS, CHO-K1-HuFAP cells
T2 construct: whole, on cells; also called CHO cell line overexpressing human FAP; FAP on the surface of CHO-K1-HuFAP cells

[3] = biological target: T1, human 4-1BB on the surface of HEK293 …; experiment: cell-based or functional assay
[4] = biological target: T3, human CD40 on the surface of HEK293 cells (HEK293-HuCD40) (human, UniProt P25942 21-277); experiment: FACS, HEK293-HuCD40 cells
T3 construct: whole, on cells; Also used as the target of the CD40/NF-κB reporter assays in HEK-Blue CD40L cells; also called cell strain highly expressing human CD40; CD40 of HEK-Blue CD40L reporter cells
T3 sequence (P25942 21-277): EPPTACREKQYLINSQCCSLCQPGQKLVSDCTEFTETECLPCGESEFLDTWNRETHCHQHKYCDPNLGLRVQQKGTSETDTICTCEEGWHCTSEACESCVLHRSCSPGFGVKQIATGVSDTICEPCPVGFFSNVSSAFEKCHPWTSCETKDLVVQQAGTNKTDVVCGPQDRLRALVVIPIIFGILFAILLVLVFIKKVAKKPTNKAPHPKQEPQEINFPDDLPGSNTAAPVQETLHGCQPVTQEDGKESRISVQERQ

[5] = biological target: T3, human CD40 on the surface of HEK293 …; experiment: cell-based or functional assay
[6] = biological target: T2, human FAP on the surface of CHO-K1 …; experiment: FACS, CHO-K1-HuFAP cells; remark: listed apart in the source
[7] = biological target: T1, human 4-1BB on the surface of HEK293 …; experiment: cell-based or functional assay; remark: listed apart in the source
[8] = biological target: T1, human 4-1BB on the surface of HEK293 …; experiment: FACS, HEK293-Hu4-1BB cells; remark: listed apart in the source
[9] = biological target: T1, human 4-1BB on the surface of HEK293 …; experiment: FACS, HEK293-Hu4-1BB cells; remark: listed apart in the source
[10] = biological target: T3, human CD40 on the surface of HEK293 …; experiment: FACS, HEK293-HuCD40 cells; remark: listed apart in the source
[11] = biological target: T3, human CD40 on the surface of HEK293 …; experiment: cell-based or functional assay; remark: listed apart in the source

- EC50 [1]: 3.2 nM
B1: C5-Fc (anti-4-1BB nanobody C5 linked to IgG1-Fc with C220A, S267E, L328F) (Fc fusion)
chain: QVQLVESGGGLVQPGGSLRLSCSASGFTFSSYAMSWVRQAPGKGLEWVSDINSGGESTFYEDSVKGRFTISRDNAKNTLYLQMNSLKPEDTAVYYCAKHPLTFTIATMNDYDYWGQGTQVTVSS[human IgG1 Fc with changes not given here]
notes: Tested as VHH-Fc

- EC50 [2]: 1.03 nM
- Maximum fluorescence value [2]: 70600
- 4-1BB/NF-κB luciferase reporter, CD40-crosslinked, EC50 [3]: 0.09 nM
- 4-1BB/NF-κB luciferase reporter, CD40-crosslinked, Fold change in Emax [3]: 4.97 fold
- 4-1BB/NF-κB luciferase reporter, FAP-crosslinked, EC50 [3]: 0.266 nM
- 4-1BB/NF-κB luciferase reporter, FAP-crosslinked, Fold change in Emax [3]: 7.43 fold
- 4-1BB/NF-κB luciferase reporter, uncrosslinked, Fold change in Emax [3]: 1.06 fold
- EC50 [4]: 3.98 nM
- Maximum fluorescence value [4]: 69400
- CD40/NF-κB reporter (HEK-Blue CD40L), 4-1BB-crosslinked, EC50 [5]: 0.5 nM
- CD40/NF-κB reporter (HEK-Blue CD40L), 4-1BB-crosslinked, Fold change in Emax [5]: 11.2 fold
- CD40/NF-κB reporter (HEK-Blue CD40L), FAP-crosslinked, EC50 [5]: 0.25 nM
- CD40/NF-κB reporter (HEK-Blue CD40L), FAP-crosslinked, Fold change in Emax [5]: 11.7 fold
- CD40/NF-κB reporter (HEK-Blue CD40L), uncrosslinked, Fold change in Emax [5]: 4.06 fold
- EC50 [6]: 2.05 nM
- Maximum fluorescence value [6]: 68700
- 4-1BB/NF-κB luciferase reporter, CD40-crosslinked, EC50 [7]: 0.02 nM
- 4-1BB/NF-κB luciferase reporter, CD40-crosslinked, Fold change in Emax [7]: 5.04 fold
- 4-1BB/NF-κB luciferase reporter, FAP-crosslinked, EC50 [7]: 0.04 nM
- 4-1BB/NF-κB luciferase reporter, FAP-crosslinked, Fold change in Emax [7]: 14.9 fold
- 4-1BB/NF-κB luciferase reporter, uncrosslinked, Fold change in Emax [7]: 1.33 fold
- EC50 [8]: 0.548 nM
- Maximum fluorescence value [8]: 10600
- EC50 [9]: 0.25 nM
- Maximum fluorescence value [9]: 11300
- EC50 [10]: 12.1 nM
- Maximum fluorescence value [10]: 64700
- CD40/NF-κB reporter (HEK-Blue CD40L), 4-1BB-crosslinked, EC50 [11]: 0.499 nM
- CD40/NF-κB reporter (HEK-Blue CD40L), 4-1BB-crosslinked, Fold change in Emax [11]: 6.38 fold
- CD40/NF-κB reporter (HEK-Blue CD40L), FAP-crosslinked, EC50 [11]: 0.301 nM
- CD40/NF-κB reporter (HEK-Blue CD40L), FAP-crosslinked, Fold change in Emax [11]: 6.89 fold
- CD40/NF-κB reporter (HEK-Blue CD40L), uncrosslinked, Fold change in Emax [11]: 2.05 fold
B2: B21326102 (anti-FAP/4-1BB/CD40 trispecific antibody) (other)
heavy: QVQLQQSGVEVKKPGASVTVSCRASGYSFADHFIHWVRQAPGQGFQWMGWINPNRGVTHHAQDFQGRVAMTRDMSTDTVYMELTSLRSDDTAVYYCARDASLTARPYYFYGFDVWGQGTLVTVSS[human IgG1 constant region with changes not given here]GGGGSGGGGSQVQLVESGGGLVQPGGSLRLSCSASGFTFSSYAMSWVRQAPGKGLEWVSDINSGGESTFYEDSVKGRFTISRDNAKNTLYLQMNSLRAEDTAVYYCAKHPLTYTIATMNDYDYWGQGTLVTVSAA
light: DIQMTQSPSSVSASVGDRVTITCRASQGISSWLAWYQQKPGKAPKLLIYAASSLQSGVPSRFSGSGSGTDFTLTISSLQPEDFATYYCQQANSFPPAFGQGTKVEIKRTVAAPSVFIFPPSDEQLKSGTASVVCLLNNFYPREAKVQWKVDNALQSGNSQESVTEQDSKDSTYSLSSTLTLSKADYEKHKVYACEVTHQGLSSPVTKSFNRGECGGGGSGGGGSEVQLVESGGGLVQPGGSLRLSCAASGFTFSRYGMKWVRQAPGKGLEWVSTINSHGDTTYYADSVKGRFTISRDNAKNSLYLQMNSLRAEDTAVYYCLRIDYSDYSSRGQGTLVTVSAA
